# This is one part of the list.
# Biological target: T1, OsWOX13 (Oryza sativa, UniProt Q5QMM3 1-267)
# T1 sequence: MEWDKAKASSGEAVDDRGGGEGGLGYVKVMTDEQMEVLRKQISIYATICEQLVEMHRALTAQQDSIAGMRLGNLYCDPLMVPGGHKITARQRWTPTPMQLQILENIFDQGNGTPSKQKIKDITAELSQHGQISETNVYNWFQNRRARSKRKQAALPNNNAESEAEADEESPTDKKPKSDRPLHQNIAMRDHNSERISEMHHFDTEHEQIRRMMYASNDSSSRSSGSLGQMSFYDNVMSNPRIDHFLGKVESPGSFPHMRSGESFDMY
# Assay: protein-binding microarray (RPBM); PBS, 2% BSA, 51.3 ng/ul salmon testes DNA, 50 uM zinc acetate, 200 nM TF, 25 C, 1 h; high values mean tight binding
# Conditions: protein: recombinant; tags: N-terminal polyhistidine and DsRed monomer fusion (pET32a); label: CyDye5-dUTP incorporated in the synthesized complementary strand; 3' TTTTT single-stranded linker to array surface; dsDNA, one strand shown
# How it was run: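 The binding signal for each feature is its fluorescence intensity in arbitrary units. An Axon 4000B scanner was used to read a custom Agilent array that had been made double-stranded with Cy5-dUTP primer extension, blocked with 2% BSA, incubated at 25 °C for 1 h with 200 nM protein in PBS, 2% BSA, salmon testes DNA and 50 µM zinc acetate, and washed. The protein was an N-terminal polyhistidine–DsRed transcription factor fusion from E. coli BL21-CodonPlus, purified on Ni–NTA.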
row,Sequence,binding signal
1,CTATTAATAAATATATATGATTATACTGAAGTAATTTTCACGGAGTCACCTAGTGCAG,8300 fluorescence intensity (a.u.)
2,CATATTAAATTTATCATATATTTCTCATTTCATGTGTGGCCGGAGTCACCTAGTGCAG,16500 fluorescence intensity (a.u.)
3,TTGTAATTACTTCATCCTGAATTTTCTCTGAACCCACAATCGGAGTCACCTAGTGCAG,22400 fluorescence intensity (a.u.)
4,CTAAAATGAATAAAACTAGTACTACAAATTTAGAACGGTACGGAGTCACCTAGTGCAG,4180 fluorescence intensity (a.u.)
5,CTCATGATTTACGGCTGCTGGCCGCCGGGCTATTTAACCACGGAGTCACCTAGTGCAG,10900 fluorescence intensity (a.u.)
6,CGAACATTAATTACCAAGGTACAAAACCGAATCGCCCCTACGGAGTCACCTAGTGCAG,11400 fluorescence intensity (a.u.)
7,GTATCAATACACCTTTATTGATAATTAGATCTTTGGTTCTCGGAGTCACCTAGTGCAG,11100 fluorescence intensity (a.u.)
8,CAAATCAGTTGATTTCTTCCCTAAACGGTATAAACGCCTGCGGAGTCACCTAGTGCAG,5200 fluorescence intensity (a.u.)
9,CATAATTACTTCATGGACCTGTGGTGCTTAGCTATATTCTCGGAGTCACCTAGTGCAG,16100 fluorescence intensity (a.u.)
10,ATGTTACTTGATTAATTACATGCCGCTTGCGTAACTACTTCGGAGTCACCTAGTGCAG,22000 fluorescence intensity (a.u.)
11,TCAAAATTGGAAGTTTTGTTGAAATTGAAACAATGTGATGCGGAGTCACCTAGTGCAG,19500 fluorescence intensity (a.u.)
12,CTTAATAGCCAATTCATAACAATAGTTACAATTAATACTACGGAGTCACCTAGTGCAG,6980 fluorescence intensity (a.u.)
13,AGAGAGACTGTAATTGGTCACGTCTGTGAAAATCATCCTTCGGAGTCACCTAGTGCAG,7360 fluorescence intensity (a.u.)
14,TTTAAATAAGTATAATCAAATGCTATCATGAACGCCAGATCGGAGTCACCTAGTGCAG,3510 fluorescence intensity (a.u.)
15,CGGTTTTGATTAGTTAAGGGACGGCCGATATCTAGTTTTGCGGAGTCACCTAGTGCAG,35400 fluorescence intensity (a.u.)
16,TTTAATTACGGGGTATAGTAATAAGTTTTGTGGCAGTCAACGGAGTCACCTAGTGCAG,14300 fluorescence intensity (a.u.)
17,TTCTAATTTCAATCAAACTTTCAATTTTGACGTGAACTAACGGAGTCACCTAGTGCAG,43100 fluorescence intensity (a.u.)
18,TGTTAATTAGAAAAGAAGGAATTCTTAGGCTCGGTGAAACCGGAGTCACCTAGTGCAG,14200 fluorescence intensity (a.u.)
19,GCCGCTCAATTGATTGGTCGATAGCATAAAAGTAATTGGTCGGAGTCACCTAGTGCAG,44700 fluorescence intensity (a.u.)
20,TCGCCGATTGATACATACATCATCCAAGCAGAGCAATCACCGGAGTCACCTAGTGCAG,19300 fluorescence intensity (a.u.)
21,GCTGACATAATTGCTTGTTGGGATTCTTGGGAGGAAATGGCGGAGTCACCTAGTGCAG,35300 fluorescence intensity (a.u.)

row,Sequence,binding signal
1,CATCAACATATAATTGATTAAATATTAATTATAACAAACTCGGAGTCACCTAGTGCAG,45700 fluorescence intensity (a.u.)
2,TATATAAATTGCTCTCTAATGCATTATAAAGCAAATAGCACGGAGTCACCTAGTGCAG,12400 fluorescence intensity (a.u.)
3,TCTTGATTGAAACAATCTTTTGATCCCATAATCTTGCCCGCGGAGTCACCTAGTGCAG,63700 fluorescence intensity (a.u.)
4,AATAATAGAGATAATTTGTTTAGCGCTTCTAACATGTGTACGGAGTCACCTAGTGCAG,30400 fluorescence intensity (a.u.)
5,AGACAAATGAATTGTTCATTACCACCGTCCCACAATCACACGGAGTCACCTAGTGCAG,3700 fluorescence intensity (a.u.)
6,CCCATCATCAATTACCGATGTGGGACTAAACCCAACAACGCGGAGTCACCTAGTGCAG,15700 fluorescence intensity (a.u.)
7,TGTGTTCTTGATTTGTGTTGTGTTTGTAGATCGTAGTTTGCGGAGTCACCTAGTGCAG,10200 fluorescence intensity (a.u.)
8,TCAAAATTTAAGTCATTTTACTCAAATGCACCAACAAGCACGGAGTCACCTAGTGCAG,4550 fluorescence intensity (a.u.)
9,AACCCTTTAATTTGTTCTTTGCTTCTTTAATCGTTGTTGACGGAGTCACCTAGTGCAG,6540 fluorescence intensity (a.u.)
10,ATGATTTACCTGATCGTCAGGGACCGGTTTTCACCTTAAACGGAGTCACCTAGTGCAG,4540 fluorescence intensity (a.u.)
11,AAAATTACGGTCAAATTGTGCTAATCCATGGATTCAAATTCGGAGTCACCTAGTGCAG,4820 fluorescence intensity (a.u.)
12,CTTCAAGATTGACCGAGGGTGTTTGAAGTAGGTTTACCCCCGGAGTCACCTAGTGCAG,15300 fluorescence intensity (a.u.)
13,TTCTAATTACTATTTAAGCTTATCCTAATTAACTCACATGCGGAGTCACCTAGTGCAG,33500 fluorescence intensity (a.u.)
14,CTTGACAAATTCCCTTCTGGGCTAACAAAACGAGTAATATCGGAGTCACCTAGTGCAG,3390 fluorescence intensity (a.u.)
15,AACTAATTACACAGTTAGGGAGGAAATCGCGAGACAAATCCGGAGTCACCTAGTGCAG,19600 fluorescence intensity (a.u.)
16,TCTTTCTGATTTATGAATACATGATCAGTGTTGTTATACACGGAGTCACCTAGTGCAG,8090 fluorescence intensity (a.u.)
17,GGGGATTGGGAGTTTATACAAGGGAATTGATGGTGAGATTCGGAGTCACCTAGTGCAG,21000 fluorescence intensity (a.u.)
18,CAAATTCCACGTAATTTATAATCTAAATATATGGAGTAGACGGAGTCACCTAGTGCAG,23400 fluorescence intensity (a.u.)
19,CTGCACAGTTAATTAAAGGAAAACTGGCGAAAACCCGGCACGGAGTCACCTAGTGCAG,8360 fluorescence intensity (a.u.)
20,AAATATAATTATGTTTACACCTACTTTCATATCTCAACAACGGAGTCACCTAGTGCAG,14400 fluorescence intensity (a.u.)
21,CACACAAATTACAAACCAAACAGAGAGAGAAAGACAGAGGCGGAGTCACCTAGTGCAG,4190 fluorescence intensity (a.u.)

row,Sequence,binding signal
1,AATAATTAGTGCAGGAAATGTTAACATAAAATTTGAAAATCGGAGTCACCTAGTGCAG,6380 fluorescence intensity (a.u.)
2,CCTCCACTAATTAACAAAAGGAAATAGTAATACCCAAGCGCGGAGTCACCTAGTGCAG,22700 fluorescence intensity (a.u.)
3,AATATAAATTTAGATTAGCAGTGGTAAGAAGAGGGACGTCCGGAGTCACCTAGTGCAG,22600 fluorescence intensity (a.u.)
4,CAACATTAAATTAACCTCCAGTTTGTTAGTCTTCTCATTTCGGAGTCACCTAGTGCAG,5720 fluorescence intensity (a.u.)
5,CGCGTGATGCTAATTATTGAAAGGCAAAGCGCTCCGAAATCGGAGTCACCTAGTGCAG,11900 fluorescence intensity (a.u.)
6,TTTTATAATTATTTAGGTCTCATGCACAAAACAAGAGGATCGGAGTCACCTAGTGCAG,9910 fluorescence intensity (a.u.)
7,CTCTACTGATTTTGATTCTTGACAGAAACAAGAGATAGGGCGGAGTCACCTAGTGCAG,17400 fluorescence intensity (a.u.)
8,CCAATAAATTAATTTCCCTCAATCCGGTATGTTGGTCACACGGAGTCACCTAGTGCAG,41800 fluorescence intensity (a.u.)
9,AATTTAACAAATTCTAATCAAGTAGCCATCTAGCTGTACGCGGAGTCACCTAGTGCAG,14000 fluorescence intensity (a.u.)
10,AATGCTTGATTGCACTTCGCTGTTCAGTTCATCATGCCTACGGAGTCACCTAGTGCAG,27400 fluorescence intensity (a.u.)
11,CATCGAACATCATGAATTTGATTGGCTTCTACTTTCACGACGGAGTCACCTAGTGCAG,17100 fluorescence intensity (a.u.)
12,TATACGATTGGAAACATCACGGACTCTTTACTGTCAGTTTCGGAGTCACCTAGTGCAG,3340 fluorescence intensity (a.u.)
13,GCTAAATTAAATCTGCTCGCCATTTTCGAATTTATTCAGACGGAGTCACCTAGTGCAG,10800 fluorescence intensity (a.u.)
14,ATTAATTTGTAACTTTTATAATTTTAGATCACATTTCGCACGGAGTCACCTAGTGCAG,35700 fluorescence intensity (a.u.)
15,GTCATGTGATTGATGATTCAGCATCCCTTGAGGCTCAGTGCGGAGTCACCTAGTGCAG,53600 fluorescence intensity (a.u.)
16,ATCATTGTGTAATTAGGCTCAAAAGATTTGTCTCGCGATTCGGAGTCACCTAGTGCAG,3750 fluorescence intensity (a.u.)
17,GCTTTGATGATGCACTCATCACCTTCACACGTCGGATCTACGGAGTCACCTAGTGCAG,4220 fluorescence intensity (a.u.)
18,TGATTAACAGCAACCATAGACGGGACAGGCCAGCCCACCACGGAGTCACCTAGTGCAG,3260 fluorescence intensity (a.u.)
19,CACACTAACATAATTGAAAACTTGTATCTTACCCAAACCGCGGAGTCACCTAGTGCAG,27000 fluorescence intensity (a.u.)
20,CAAATTAACTGGAAATTTTGAAGCATCCATGTTCTGTGAGCGGAGTCACCTAGTGCAG,46600 fluorescence intensity (a.u.)
21,TGCAGAGCACCAATCAATCCTTCCTCCCAGCCAAGATCTTCGGAGTCACCTAGTGCAG,6820 fluorescence intensity (a.u.)

row,Sequence,binding signal
1,TTCAAATTGATGTTAATGGAAATGGAGGAAGTAGTACTGTCGGAGTCACCTAGTGCAG,51000 fluorescence intensity (a.u.)
2,TATAGTCATTAATTAATTAGTCCATATATATATAGTACATCGGAGTCACCTAGTGCAG,20000 fluorescence intensity (a.u.)
3,AATTAGATTAATATGTTATGTTTCTGTCCACTGCTAGAGACGGAGTCACCTAGTGCAG,21300 fluorescence intensity (a.u.)
4,TTCGATTGGTGTGGATTGAGATGAGATGAGATGACTCGTGCGGAGTCACCTAGTGCAG,22400 fluorescence intensity (a.u.)
5,TCTCAATCAGCGGGACAGTAAGTAAATCCACATCAACAGCCGGAGTCACCTAGTGCAG,14600 fluorescence intensity (a.u.)
6,ATACCGATCAATCAGTTCCTAAAAGATTTGTACTCTACAGCGGAGTCACCTAGTGCAG,13100 fluorescence intensity (a.u.)
7,GTCTTCCGTCCCTTTCCCTCCTCACTTCAACCCTTCAATCCGGAGTCACCTAGTGCAG,3260 fluorescence intensity (a.u.)
8,GTGGTGAATAGATAGATAGTGCGCGCTTCGGCCGGTCCCCCGGAGTCACCTAGTGCAG,4850 fluorescence intensity (a.u.)
9,TTAATCTGATTAACGTGCATGCACATATATACGAGCTGTGCGGAGTCACCTAGTGCAG,15800 fluorescence intensity (a.u.)
10,TGAGCATAATTACGCCATGATTTGACAATATTATGCTACACGGAGTCACCTAGTGCAG,28100 fluorescence intensity (a.u.)
11,GAATATGTAATAGATCATGATTTGGATATTACGTTTCCTTCGGAGTCACCTAGTGCAG,8270 fluorescence intensity (a.u.)
12,AAGAGTTTAAATTTTAAAATGATTTTATAAGTGGTTAACCCGGAGTCACCTAGTGCAG,7500 fluorescence intensity (a.u.)
13,CTTAAACTTGACTGCAGCAGTAGTGAGCCCTTGGAGGATGCGGAGTCACCTAGTGCAG,7230 fluorescence intensity (a.u.)
14,AGTCAAATTGCACCGGTTTTAATAGTTAGGGGTCCAGACACGGAGTCACCTAGTGCAG,3570 fluorescence intensity (a.u.)
15,GCAGGTGATGAGATGAATTACCTTTTAACAATGTCGAGCACGGAGTCACCTAGTGCAG,6200 fluorescence intensity (a.u.)
16,TGGATTGATTCCCGGTTTCTTATTGTCTATATCATGAGTACGGAGTCACCTAGTGCAG,26800 fluorescence intensity (a.u.)
17,GACCAATCAGGAGACGAGGCCGGCGCCGTTTTCTTTTCCCCGGAGTCACCTAGTGCAG,5750 fluorescence intensity (a.u.)
18,GCTTAATTACATGGGAGAGGCTTTGTTTCTTGTTTATTTTCGGAGTCACCTAGTGCAG,18000 fluorescence intensity (a.u.)
19,GTCATGATTTGACAATGTGGTGCTACAGTAAACATTTGCTCGGAGTCACCTAGTGCAG,33600 fluorescence intensity (a.u.)
20,TAATAGATAGATAGATAGATAGATAGATTAGTAATTTAGACGGAGTCACCTAGTGCAG,30600 fluorescence intensity (a.u.)
21,GATGATTGACGACAAGCCGATTGCCTTTCCCTTATCTGAACGGAGTCACCTAGTGCAG,44500 fluorescence intensity (a.u.)
